Data reported in PubChem BioAssay AID1345083 (National Center for Advancing Translational Sciences (NCATS), 2018).
About 6,200 (6.6%) of roughly 94,000 compounds were called active. The shares of active, inactive and inconclusive entries below differ from those in the screen. Calls come from the whole dose curve; as a rule, active = well fitted inhibition curve with a large enough effect; inconclusive = small, poorly fitted or top-dose-only effect; inactive = flat fitted curve, though single readings scatter. Potencies beside an inconclusive call are fits to weak or partial responses and may not hold up.

test: Cytotoxic Profiling in HEK 293 Cell Line of Diverse Libraries Using Quantitative High-Throughput Screening; conditions: HEK 293 viability, ATP luminescence (CellTiter-Glo), 48-72 h; activity change, negative = cytotoxicity: at 115 µM (top of the series) unless noted; series mostly up to 115 µM; note: nearly all actives have a fitted effect of over 60% in size
Procedure, shortened: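 CellTiter-Glo luminescence (cellular ATP) was read after 48 or 72 hr of compound exposure at 37 degree Celsius. Cells were HEK 293 plated at 250 cells/well.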
% is set by controls: 0 for no effect and ±100 for the full control effect; potency is the fitted concentration of half-maximal effect; tags give direction and shape of the fitted curve.

| Structure (SMILES) | Potency | activity change, negative = cytotoxicity |
| --- | --- | --- |
| CN(C(=O)c1ccc2c(c1)NC(C)(CNCc1ccccc1)CO2)c1ccccc1 (configuration not stated) | inconclusive: 89.1 µM [inhibitor, partial curve] | – |
| Cc1cnccc1CNC(=O)CC(c1cccc(O)c1)c1cccc(Cl)c1 (configuration not stated) | inconclusive: 50.1 µM [inhibitor, partial curve, poor fit] | – |
| COc1ccc(-c2noc([C@@H]3C[C@H](NS(=O)(=O)c4ccc(OC)cc4)CN3C)n2)cc1 | active: 39.8 µM | – |
| CC(C)c1ccc(S(=O)(=O)N2CCC3(CCCNC3)C2)cc1 (configuration not stated) | inconclusive: 79.4 µM [inhibitor, partial curve] | – |
| CCOc1ccc(CC(=O)N2CCC(Cc3nc(-c4ccc(F)cc4)no3)CC2)cc1 | inconclusive: 56.2 µM [inhibitor, partial curve, poor fit] | – |
| CC(C)(C(=O)N1CCc2[nH]nc(-c3ccc(F)c(F)c3)c2C1)n1cccc1 | inconclusive: 39.8 µM [inhibitor, partial curve, poor fit] | – |
| CCOc1ccccc1C(=O)N1CCC2(CC1)CC(O)CCO2 (configuration not stated) | inconclusive: 100 µM [inhibitor, single point] | – |
| c1cc(CN(CCN2CCCCC2)CC2CCCN(C3CCCC3)C2)c2nonc2c1 (configuration not stated) | – | inactive: -12.9% |
| Cc1cc(F)ccc1OC1CN(Cc2ccsc2)C1 | inconclusive: 70.8 µM [inhibitor, partial curve, poor fit] | – |
| CCCCCN1CCCCC12Cc1ccccc1CNC2=O (configuration not stated) | – | inactive: -7.11% [at 172 µM] |
| CC1(c2ccccc2)N(Cc2cccnc2)C(=O)OC12CCN(C(=O)c1ccccc1)CC2 (configuration not stated) | – | inactive: 1.3% [at 172 µM] |
| O=C(CC1CCCC1)N1[C@@H](c2ccco2)[C@@H](CO)C[C@]12CCCCN(CCO)C2=O | inconclusive: 89.1 µM [inhibitor, single point] | – |
| Cc1ccc(NC(=O)N2CCC(CCNC(=O)c3cccc(F)c3)CC2)cc1 | – | inactive: -10.8% |
| CSc1ccc(-c2cccc(C(=O)NCC(=O)NCc3cccc(F)c3)c2)cc1 | inconclusive: 10 µM [inhibitor, full curve, poor fit] | – |
| O=c1c2c(CO)c(-c3ccc(F)cc3)nn2ccn1Cc1cccc(C(F)(F)F)c1 | inconclusive: 35.5 µM [inhibitor, partial curve] | – |
| COc1ccc(-c2cn3cc(C(=O)NC(C)C)nc3s2)cc1 | inconclusive: 39.8 µM [inhibitor, full curve] | – |
| Cc1ccccc1-c1[nH]nc2ncc(-c3ccc(F)cc3)nc12 | active: 44.7 µM | – |
| COC(=O)CN1Cc2cc(F)ccc2N(CC(O)COc2ccc(OC)cc2)CCC1=O (configuration not stated) | – | inactive: -17.5% |
| CC(C)c1noc(-c2cn(C3CCCN(C(=O)c4ccc(C(C)(C)C)cc4)C3)nn2)n1 (configuration not stated) | inconclusive: 17.8 µM [inhibitor, full curve] | – |
| Cc1ccc(C(=O)N2CCCCCCNC(=O)[C@@H]3C[C@@H](c4nc(-c5cnccn5)no4)C[C@@H]32)s1 | – | inactive: -13.6% |
| Cc1ccsc1C(=O)N1CCN(c2cc(-c3ccc(Cl)cc3)[nH]n2)CC1 | inconclusive: 50.1 µM [inhibitor, partial curve, poor fit] | – |

| Structure (SMILES) | Potency | activity change, negative = cytotoxicity |
| --- | --- | --- |
| CC(C)c1nc(-c2ccc(OC3CCN(S(=O)(=O)Cc4ccccc4)C3)cc2)no1 (configuration not stated) | inconclusive: 39.8 µM [inhibitor, full curve, poor fit] | – |
| CC(C)CCN1CCOc2cc([S+](=O)([O-])Nc3nncs3)ccc2C1 | – | inactive: -12% [at 172 µM] |
| COc1ccc(CCNC(=O)c2cc(-c3ccc(C(F)(F)F)cc3)nc3c2cnn3C)cc1 | – | inactive: -0.501% |
| CN1CCC(NCc2nc3c(n2Cc2ccccc2)C(=O)N(CCOc2ccccc2)CCN3)CC1 | inconclusive: 89.1 µM [inhibitor, single point] | – |
| CCN(CC)C(=O)[C@@H]1CCC[C@@H](NS(=O)(=O)c2ccccc2)CN(C)C(=O)C1 | – | inactive: -1.25% [at 172 µM] |
| CCOc1cccc(-c2nc(C(=O)NCc3ccccc3)cs2)c1 | inconclusive: 89.1 µM [inhibitor, single point] | – |
| COc1cccc(-c2ccnc(-c3nnc(C)n3C3CCCCC3)c2)c1 | active: 70.8 µM | – |
| CN(Cc1cccnc1)c1nc2c(c(=O)[nH]1)CCN(Cc1ccccc1)CC2 | – | inactive: -24.7% |
| O=C(NCc1ccc(F)cc1)c1nc(-c2ccccc2)c2cnccn12 | inconclusive: 56.2 µM [inhibitor, partial curve, poor fit] | – |
| CN(C)Cc1cc(C[C@@H]2C[C@H](NC(=O)CC(C)(C)C)C2(C)C)no1 | inconclusive: 50.1 µM [inhibitor, partial curve, poor fit] | – |
| CCCN(CC1CC1)C(=O)C1CCC(=O)N(CCc2ccc(Cl)cc2)C1 (configuration not stated) | inconclusive: 39.8 µM [inhibitor, full curve, poor fit] | – |
| CN1C[C@H](O)C[C@H]1c1nnc2n1CCN(C(=O)C1CCC1)CC2 | – | inactive: -17.5% |
| Cc1cc(F)ccc1-c1[nH]nc2ncc(-c3ccsc3)nc12 | inconclusive: 79.4 µM [inhibitor, partial curve, poor fit] | – |
| Cc1ccc(CNC(=O)N2CCC(c3nc(CCOCC4CCOCC4)no3)C2)cc1 (configuration not stated) | inconclusive: 100 µM [inhibitor, single point] | – |
| COCCn1c(COc2ccc(S(C)(=O)=O)cc2)nnc1C1CC(N)C1 (configuration not stated) | inactive | – |
| Cc1ccc(NC(=O)N2CCCCC2c2nc(CCOCC3CCCC3)no2)cc1C (configuration not stated) | inconclusive: 50.1 µM [inhibitor, partial curve, poor fit] | – |
| Cc1nn(-c2ccccc2)c2c1C(C1CC1)N(C1CN(C(=O)NC(C)(C)c3ccccc3)C1)C2=O (configuration not stated) | inconclusive: 31.6 µM [inhibitor, full curve, poor fit] | – |
| O=C(c1cccc(Cl)c1)N1CCc2nc(C3CC3)nc(-c3ccc(O)cc3)c2CC1 | inconclusive: 50.1 µM [inhibitor, partial curve, poor fit] | – |
| COCCCNC(=O)c1ccc2oc(-c3ccncc3Cl)nc2c1 | inconclusive: 35.5 µM [inhibitor, partial curve, poor fit] | – |
| CCOc1cc(C(=O)N2CCC(Cc3nc(-c4cnccn4)no3)CC2)cc(OCC)c1OCC | – | inactive: -14.7% |
| COCCN[C@H]1C[C@@H]2c3[nH]c4ccccc4c3C[C@@H](C(=O)OC)N2[C@H](c2ccccc2)C1 | active: 39.8 µM | – |
